From the RNAGym collection of RNA variant scans (doi:10.7554/elife.90254)
Read counts are not given, so values of variants with three or more changes are uncertain.

B1: LINE1-mini (parent)
chain: GGCAGAGCUCAACACAGCGUGGCAAAGUGGCUGUGGCUAGACUGCC

Variants of: B1
Experiment: self-cleavage, relative activity (ratio to wild type); higher = more cleavage; in vitro, sequencing; the parent is a self-cleaving ribozyme

Q: Which self-cleavage does the source give for GGCCGAGCUCAACAUAGCGUGGCAAUGUGGCUGUGGCUAGACUGCC [A4C C15U A26U] here?
A: 0.01

Q: Which self-cleavage does the source give for GGCCGACCUCAACACAGCGUGGCAUAGUGGCUUUGGCUAAACUGCC [A4C G7C A25U G33U G40A] here?
A: 0.22

Q: With GGCCGAGCUCAACACAGCGUGGGAAAGUCGCUGUGGGUAGACUGGC [A4C C23G G29C C37G C45G] as the variant, how does the self-cleavage read?
A: 0.03

Q: With GGCGGAGCUCUACACAGCGUGGCAAAGUCGCUGUGGCUAGACUGCC [A4G A11U G29C] as the variant, how does the self-cleavage read?
A: 0.03

Q: Which self-cleavage does the source give for GGCCGAGCUCAACACAGCGGGGCAAAGUGGCUGUGGGUAGACUGCC [A4C U20G C37G] here?
A: 0.46

Q: Which self-cleavage does the source give for GGCCGAGCUCAACAAAGCGUGGCAUAGUGGCUGUGGCUAGACGGUC [A4C C15A A25U U43G C45U] here?
A: 0.01

Q: For GGCCGAGCUCAACAUAGUGUGGCAAAGUGGCUGUAGAUAGACUGCC [A4C C15U C18U G35A C37A], which self-cleavage is on record?
A: 0.01

Q: For GGCCGAGCUCAACACAGCGUGGCAAAGUGGCUGUGGCUAGACGGAC [A4C U43G C45A], which self-cleavage is on record?
A: 0.06

Q: For GGCGGAGCUCGACACUGCGUGGCAAAGUGUCUGUGGCUAGACUGCC [A4G A11G A16U G30U], which self-cleavage is on record?
A: 0.02

Q: Which self-cleavage does the source give for GGCGGAGCUCUACACAGCGUGGCAAAGUGCCGGUAUAUAGACUGCC [A4G A11U G30C U32G G35A G36U C37A] here?
A: 0.01

Q: For GGCCGAGCUCAAAACAGCGUGGCAAAGUGGCUGAGGCUAGAGUGCC [A4C C13A U34A C42G], which self-cleavage is on record?
A: 0.19

Q: With GGCGGAGCUCAGCCCAGCGAGGCAAAGCGGCUGUGGCUAGACUGCC [A4G A12G A14C U20A U28C] as the variant, how does the self-cleavage read?
A: 0.02

Q: Which self-cleavage does the source give for GGCCGAGCACAACACAGCGUGGCGAAGUGGCUGUGGCCAGACUGCC [A4C U9A A24G U38C] here?
A: 0.03

Q: For GGCCGAUCUCAACACAGCGUGGCAAAGUGGCUGUGGCUAGAUUGCA [A4C G7U C42U C46A], which self-cleavage is on record?
A: 0.05

Q: For GGCCGAGCUCAACACAGCGUGGCAAAGUGCCUGUGGCUACACAGCC [A4C G30C G40C U43A], which self-cleavage is on record?
A: 0.02

Q: For GGCCGAGCUCAACACAGAGUGGCAAAAUGGCUGUGGCUAGACUCCC [A4C C18A G27A G44C], which self-cleavage is on record?
A: 0.04

Q: For GGCCGAGCUCAACACAUCUUGGCAAAGUGGCUGUGGCUAGACUGGC [A4C G17U G19U C45G], which self-cleavage is on record?
A: 0.02

Q: With GGCCGAGCUCAACACACCGUGGCAAAGUGGCUGUCGCUAGACUGCC [A4C G17C G35C] as the variant, how does the self-cleavage read?
A: 0.3

Q: With GGCCGAGCUCAACACAGGGUGGCAAAGUGGCUGUGGCUAUACUGCA [A4C C18G G40U C46A] as the variant, how does the self-cleavage read?
A: 0.04

Q: With GGCCGAGCACAACACAGCGUGGCAAAGUGUCUGUGGCUAGAUUGCC [A4C U9A G30U C42U] as the variant, how does the self-cleavage read?
A: 0.19

Q: Which self-cleavage does the source give for GGCGGAGCUCACCACAGCGUGGCAAAGUGGCAGUGGCUAGACUGCC [A4G A12C U32A] here?
A: 0.09

Q: With GGCCGACCUCAACAAAGCUUGGGAAAGUGGCUAUGGCUAGACUGCA [A4C G7C C15A G19U C23G G33A C46A] as the variant, how does the self-cleavage read?
A: 0.02

Q: For GGCCGAGCUCAACACACCGUGGCAAAGUGGCUGUGGCUAUACUGCC [A4C G17C G40U], which self-cleavage is on record?
A: 0.28

Q: Which self-cleavage does the source give for GGCCGAGCUCAACACAGGAUGGCAAAGUGGCUGUGGCUAGACUGCC [A4C C18G G19A] here?
A: 0.04

Q: With GGCCGAGCUCAACACAACGUGGCAAAGUGGCUGAGGCUAGACUGCC [A4C G17A U34A] as the variant, how does the self-cleavage read?
A: 0.02

Q: With GGCCGAGCUCAACAGAGUUCGGCAAAGUGGCUGUGGCUAGACUGCC [A4C C15G C18U G19U U20C] as the variant, how does the self-cleavage read?
A: 0.03

Q: With GGCCGAGCUCAACACAGCGUGGCAAAGUGGCUGCGGCUAGAGUGCC [A4C U34C C42G] as the variant, how does the self-cleavage read?
A: 0.05

Q: Which self-cleavage does the source give for GGCCCAGCUCAACCCAGCGUGGCAAGGUGGCUGUGGCUAGACUGCC [A4C G5C A14C A26G] here?
A: 0.05

Q: For GGCCGAGCUCAACACAGCGUAGUAAAGUGGCUGUGGCUAGACUGCC [A4C G21A C23U], which self-cleavage is on record?
A: 0.24

Q: With GGCCGAACUCAACACAGCGUGGCAUAGUGGCUGUAGAUAGACUGAC [A4C G7A A25U G35A C37A C45A] as the variant, how does the self-cleavage read?
A: 0.14

Q: With GGCCGAGCUCAACACAGAGAGUCAAAGUGGCUGUGGCUAGUCUGCC [A4C C18A U20A G22U A41U] as the variant, how does the self-cleavage read?
A: 0.04

Q: With GGCCGAGCUCAACACAGCGUGUCAAAGUGGCUGGGGUUAGACUGCC [A4C G22U U34G C37U] as the variant, how does the self-cleavage read?
A: 0.15

Q: Which self-cleavage does the source give for GGCCGAGCUCAAAACAGCGUGGCAAAGUGGCUGGGGCUAGCCUGCC [A4C C13A U34G A41C] here?
A: 0.04

Q: For GGCCGAGCUCAACAUCGCGCGGCAAAGUGGCUGCGGCUAGACUGCC [A4C C15U A16C U20C U34C], which self-cleavage is on record?
A: 0.04

Q: With GGCCGAGCUAAACACAGCGUGGCAAAGAGGCCGUGGCUAGACUGCG [A4C C10A U28A U32C C46G] as the variant, how does the self-cleavage read?
A: 0.04

Q: Which self-cleavage does the source give for GGCCGAGCUCAACACAGCCUAGCAAAGUGGCUGUGGCUAGACUGCC [A4C G19C G21A] here?
A: 0.05

Q: Which self-cleavage does the source give for GGCCGAGCUCAACAAAGCGUGGCAAAGUGGCUGUGGCUACACUGCC [A4C C15A G40C] here?
A: 0.35

Q: Which self-cleavage does the source give for GGCCGAGCUCAACACAGCGAGGUAAAGUGGCUGUGGCUAGACUGCC [A4C U20A C23U] here?
A: 0.06

Q: Which self-cleavage does the source give for GGCCGAGCUUCACACAGCGUGGCAAAGUGUCUGUGGCUUGACUGCC [A4C C10U A11C G30U A39U] here?
A: 0.01

Q: Which self-cleavage does the source give for GGCGGGGCUAAACACAGCGUGGCAAAGUGGCUGUGGCUAGACUGGC [A4G A6G C10A C45G] here?
A: 0

Q: With GGCGGAGCUCCACACACCGUGGCACAGUGGCUGUGGCUAGUCUGCC [A4G A11C G17C A25C A41U] as the variant, how does the self-cleavage read?
A: 0.01

Q: For GGCCGAGCUGAACACAGCGUCGGAAAGUUGCUGUUGCUAGACUGCC [A4C C10G G21C C23G G29U G35U], which self-cleavage is on record?
A: 0.02

Q: With GGCCGAGCUCAACACAGCGUGGCAAACCGGAUGUGGCUAGACUGCC [A4C G27C U28C C31A] as the variant, how does the self-cleavage read?
A: 0.02

Q: Which self-cleavage does the source give for GGCCGAGCUCAAGACAGCGUGGCUAAGUGGCUGUGGCUAGAAUGCC [A4C C13G A24U C42A] here?
A: 0.01

Q: Which self-cleavage does the source give for GGCGGAGCUCGACACAGCGUGGCAAAGUGGCUACGGCUAGACUGCC [A4G A11G G33A U34C] here?
A: 0.02

Q: Which self-cleavage does the source give for GGCCGAGCUCAACAAAGCGUGGCAACGUGGCUGUGGCUAGCCUGCC [A4C C15A A26C A41C] here?
A: 0.14

Q: Which self-cleavage does the source give for GGCGGAGCUCACCACAGCUAGGCAAAGUGGCUGUGGCUGGACUGAC [A4G A12C G19U U20A A39G C45A] here?
A: 0

Q: For GGCCGAGCUCAACACAGUGUGGCAAAGUCGCUGUGGCUAGUCUGCC [A4C C18U G29C A41U], which self-cleavage is on record?
A: 0.1

Q: Which self-cleavage does the source give for GGCCGAGCUCAACACAGCGUGGCAAAGUGGCUCUGGGUAGGCUGCC [A4C G33C C37G A41G] here?
A: 0

Q: With GGCCGACCUCUACACAGCGUGGCAAAGUGGCUCUGGCUAGACUGCC [A4C G7C A11U G33C] as the variant, how does the self-cleavage read?
A: 0.03

Q: For GGCCGACCUCAAGACAGCGUGGCAAAGUGGCUGUGGCUAGACUGCC [A4C G7C C13G], which self-cleavage is on record?
A: 0.25

Q: Which self-cleavage does the source give for GGCCGAGCUCAACACAGCCUGGCACAGUGGAUGUGGCUAGACUGCC [A4C G19C A25C C31A] here?
A: 0.01

Q: With GGCCGAGCUGAACACAGCGUGGCAAAGUGGCUUUGGCUAGACUGCC [A4C C10G G33U] as the variant, how does the self-cleavage read?
A: 0.03

Q: Which self-cleavage does the source give for GGCCGAGCUCAAGACAGCGUGGCAUAGUGGCUGUGUCUUGACUGCC [A4C C13G A25U G36U A39U] here?
A: 0.07

Q: With GGCCGAGCUCAACACAGCGUGGCAAAGUGGUUUAGGCUAGACUGCC [A4C C31U G33U U34A] as the variant, how does the self-cleavage read?
A: 0.09

Q: With GGCCGAGCUCAACACAGCGUGGCAAAGUGGCUGUGACUAUACUGCC [A4C G36A G40U] as the variant, how does the self-cleavage read?
A: 0.01
